The list shows a part of the results. At the low end of the ranking the order means little. Measured with an extract: partners may take part in the binding.

The test deals with T1, HNF4alpha8 (COS-7 nuclear extract) (UniProt P41235-5).
T1 sequence: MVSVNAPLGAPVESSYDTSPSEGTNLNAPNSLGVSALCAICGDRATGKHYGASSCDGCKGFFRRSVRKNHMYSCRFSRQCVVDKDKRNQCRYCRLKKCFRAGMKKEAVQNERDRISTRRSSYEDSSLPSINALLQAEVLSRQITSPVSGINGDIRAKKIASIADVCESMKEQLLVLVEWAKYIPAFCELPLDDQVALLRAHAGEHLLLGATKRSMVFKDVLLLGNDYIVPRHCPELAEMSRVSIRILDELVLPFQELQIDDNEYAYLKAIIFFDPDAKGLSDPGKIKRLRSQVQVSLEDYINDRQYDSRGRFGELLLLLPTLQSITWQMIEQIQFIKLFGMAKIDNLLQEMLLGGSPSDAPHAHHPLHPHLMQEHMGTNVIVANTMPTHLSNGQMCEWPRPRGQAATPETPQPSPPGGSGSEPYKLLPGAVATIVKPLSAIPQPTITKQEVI
As to the kind of experiment: protein-binding microarray. Particulars: COS-7 nuclear extract on double-stranded Agilent 4x180k PBM; binding buffer, salt, pH and temperature not given; high values mean tight binding; double strand, one strand shown; sequences stand for … in …GCCTAGGGAGATTAGAGTATCGGTCGA
For the sequence AATGACAGTGTCAGGACCTTGCTCCTGTTC, the binding signal (log2 normalized intensity) is 1.46.

On to CCTATGGTATGTATGGAATGTCACTTTCTG, for which the binding signal (log2 normalized intensity) is 1.79.

As to GGGCTAACGCTGCTGTCTGTCTTCGGGCGG, the binding signal (log2 normalized intensity) is -1.15.

Consider CTATGTCCTTATCCTCATTGTGTGCAGACC, for which the binding signal (log2 normalized intensity) turned out to be 1.58.

Take AGCAAACCTGTCTCTCTGCATTCCTCCTGG: the binding signal (log2 normalized intensity) was determined as 0.684.

In the case of GCATACAAAACAACCACTCTTATCAGACAG, the binding signal (log2 normalized intensity) was -1.28.

As to ATTGAATTAAACACAGTTGCCTATGCCCTT, the binding signal (log2 normalized intensity) was found to be 2.38.

Regarding ATACTATATTTGTCCCACATTAACTGTGCT, the binding signal (log2 normalized intensity) is -1.26.

As for TGGTGGCAATGTGTCAGAGAAGGAGCCAGA, the binding signal (log2 normalized intensity) is -1.29.

On to TGAAAGTCAACAAGATTCCTTGAGCATTCC, for which the binding signal (log2 normalized intensity) was -1.36.

On to CAGGTGAGAGGCCTCTAAGCATAACTGGTT, for which the binding signal (log2 normalized intensity) is -1.29.

Regarding TAGAGCTTTTGAGGGTGACCGATCGTTATT, the binding signal (log2 normalized intensity) turned out to be 1.48.

For TCAACATCAAAGGCCTTCCTATCTCTACTT, the binding signal (log2 normalized intensity) was -1.4.

CGCCTGCAGAAACTTTCTTTTTGTTGTTAG: the binding signal (log2 normalized intensity) turned out to be 1.19.

For the sequence TGTGCCCTCGGGTCCCACACACCTCAAATG, the binding signal (log2 normalized intensity) is -1.12.

Consider ACTTCATTCAGGTAGCAGGCCTCAGAGATA, for which the binding signal (log2 normalized intensity) was -1.36.

Regarding CCCATCCCCAACAAAGCTCTGCATCCTTCC, the binding signal (log2 normalized intensity) amounted to 1.28.

CCTTGTCTAAGCCCTTATCAAAAAGATAAG: the binding signal (log2 normalized intensity) was -1.22.

As for TTGTTCTATTAACCTGGCCAAACACCAAAT, the binding signal (log2 normalized intensity) was 0.553.

Consider GAGGTCAAGATAAGATACGAAGGGTTTAAA, for which the binding signal (log2 normalized intensity) was -0.273.

As for GGTCAGCAATGGTAATTACCTTCTAGTGGT, the binding signal (log2 normalized intensity) is -0.63.

Consider TGAGGAAGGCTCTTTGTTCAGAGGGCATGT, for which the binding signal (log2 normalized intensity) stood at 2.18.

Consider GCGGTGCCATTCACAGGAATGTTGGCAGCA, for which the binding signal (log2 normalized intensity) was -1.27.

As for AAGAAGTCCAAGGACTTATCCTTGGGACAT, the binding signal (log2 normalized intensity) is -1.31.

ACCAAGCAAGCCAGTCAGAATCTCTCTGTA: the binding signal (log2 normalized intensity) is -1.29.

For ACAGGGTGTGGCTTCCAAGGGGAATGTGGA, the binding signal (log2 normalized intensity) was -0.512.

On to TCTTTTTAATCAATAATCTTTGCCCTTGAA, for which the binding signal (log2 normalized intensity) amounted to 3.49.

Turning to GAGTCCAGTGAACAAAACATGGATTTTGGA, the binding signal (log2 normalized intensity) was determined as 1.84.

As for CTTTGGCTGCAAAATTTGAACAAAAAAAGA, the binding signal (log2 normalized intensity) is -1.25.

GCAAAGGTCAGCTCATTCCCTAGGGCTCGG: the binding signal (log2 normalized intensity) was -0.991.

For the sequence GAAAGGAGAAGCTGGAGATAAGGATAGAGG, the binding signal (log2 normalized intensity) was -1.37.

For the sequence GGCCAGTTTGATCACAAGACATGAAGATGC, the binding signal (log2 normalized intensity) is -1.03.

As for CTCAAAGTCTAACCCAACTAAGAACACAGT, the binding signal (log2 normalized intensity) was found to be 1.24.

As for CGAGCTTCACCTTTGTCCTCTCTCCCACAA, the binding signal (log2 normalized intensity) came to 3.7.

With TTTATGACCTTTGACTGCAGAAGATAAGAA, the binding signal (log2 normalized intensity) is 4.5.

For the sequence TTGAAGATAATCACCCGATAAGCTGACCCC, the binding signal (log2 normalized intensity) was 6.25.

As for TGAAATGGTTACAAAGGTCACACTCCTGTG, the binding signal (log2 normalized intensity) stood at 4.64.

In the case of GTTCACTTGCCAAGCCTAGTTTTGATTATC, the binding signal (log2 normalized intensity) amounted to 0.644.

On to CTTAAGACCTAGATGGAATGTTGTGTCTTC, for which the binding signal (log2 normalized intensity) amounted to 1.32.

Consider CTAGTTAAGTCACTGGGCTGATGACCTTTG, for which the binding signal (log2 normalized intensity) is 6.81.

CCTCCAGGGAGGGGAGAGGGGGTTAAAGGT: the binding signal (log2 normalized intensity) came out at 1.84.

For ATCCTGCTAGCAGCTCTCTCCCTTATCTGA, the binding signal (log2 normalized intensity) is -1.37.

As to CGAACTAGCTTGGTGCAGGGGCGGGGCCGC, the binding signal (log2 normalized intensity) was -1.19.

On to GCGTGAGCCACCGCGCCCCGCCCCCAGTGC, for which the binding signal (log2 normalized intensity) was found to be 5.57.

Take GGTATGCATGGAATGCAGGAGATCCAGTAG: the binding signal (log2 normalized intensity) was -0.791.

Consider ATGCGTCATCCGCATCTGAAGATAAGAGAA, for which the binding signal (log2 normalized intensity) was -1.25.

As for TTCCGCGGACGTGTTCCCACAGTGCCCTCT, the binding signal (log2 normalized intensity) stood at 3.77.

With TTTTACAGACAGGCATGACAGAGTGTCCTG, the binding signal (log2 normalized intensity) turned out to be 0.341.

For ACCTCTGTAATAACTGCAGTGCCACTCGGG, the binding signal (log2 normalized intensity) was -0.418.

For TGCGGAATGACATTCAGCAACTGGGTTCAG, the binding signal (log2 normalized intensity) was 1.64.

For the sequence TTCACCTTTGTCCTCTCTCCCACAAGGGCA, the binding signal (log2 normalized intensity) turned out to be 3.04.

As to GGGGTCAAAGTCCCCTGAGCTTGAGTCCAT, the binding signal (log2 normalized intensity) worked out at 6.

With CTGCCACATTTTTATCCTTTTTTGAAGGTT, the binding signal (log2 normalized intensity) was found to be 2.

In the case of TCCTGACAATTGGCCAAAGTTCAGTAAATC, the binding signal (log2 normalized intensity) was 3.61.

AAACCTTTGCCCCACTCTCCTCTGCCACTG: the binding signal (log2 normalized intensity) came to 2.85.

For the sequence ACTTTGCCTTTTGGCTAAAGTCCAAATTCC, the binding signal (log2 normalized intensity) amounted to 6.01.

Consider ATAGGCACATATTGGATCTCTGGTATTTTG, for which the binding signal (log2 normalized intensity) was 1.41.

CAAAATCGCCACTACAAAGGGAATCAGGTT: the binding signal (log2 normalized intensity) is -1.35.

ACCCAGATAGGCAAAGTGGCTAGGACCTTT: the binding signal (log2 normalized intensity) was 3.03.

As to CTGATTCTGATTAGGTGGATTCGCCCAGCA, the binding signal (log2 normalized intensity) was -1.06.

In the case of AGTGGCTCCTAGAATTATCCCACCCCCAAT, the binding signal (log2 normalized intensity) worked out at 4.37.

Turning to CATTCAACTGACACTTGTTTGAATTGTGAT, the binding signal (log2 normalized intensity) worked out at 1.35.

As for AAAAACAGGTTCTGCAACACTTTCTAAGGA, the binding signal (log2 normalized intensity) was -1.38.

Take TGGAATGTCAAGATTGAGACATTCATGGCT: the binding signal (log2 normalized intensity) was -1.07.

In the case of GACTCAGAAAAATATGTGGACTTCAAAGGT, the binding signal (log2 normalized intensity) was determined as 1.87.

As for AGTGAGGGACAAGGCTGTCCCCCATCTCAT, the binding signal (log2 normalized intensity) is 1.5.

For AAGCTTGCTGATTACATAGGAGGCTGCCTC, the binding signal (log2 normalized intensity) was -0.854.

Turning to AAAGGTCATCGCACCGGCAGGGGAGAACTT, the binding signal (log2 normalized intensity) amounted to 1.24.

For TTTCTGGGACCAAGGGTCAGTTCATTAAAA, the binding signal (log2 normalized intensity) is 2.94.

As for TTGCTCAACCTGGACCTCATTAATAGGGCA, the binding signal (log2 normalized intensity) was found to be 1.35.

AGCAAAGTTCAGAGAGGAATCGGCAGTTTG: the binding signal (log2 normalized intensity) is -1.3.

Turning to AGAACATTGCAGTGGCTCAGAGGTTATCTC, the binding signal (log2 normalized intensity) was found to be 0.94.

As to GACAAGGCTCTGGTGGGGAATGCTAGGACT, the binding signal (log2 normalized intensity) is -1.23.

(Values after publication PMC10726135.)
